From the supplement of paper PMC10441789
The other results are listed elsewhere or left out. Antibody binding of pooled human sera (four to six donors per pool; dilution not stated) to peptides of the Trypanosoma cruzi antigen TSSA on microarrays. Quantile-normalised fluorescence in arbitrary units, mean of duplicate arrays; higher = more binding. No active / inactive call. The uninfected pools are read here as the healthy donors of the same country. The strongest signals lie near the top of the scale (about 60,000).

Columns and labels:
Assay in all cases: antibody binding signal (normalised fluorescence) (arbitrary fluorescence units); higher = stronger serum antibody binding to peptide
[1] = test system: pooled sera of chronic Chagas disease patients, Argentina
Method: (§1)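 Microarray of overlapping 15-residue peptides of the four Trypanosoma cruzi TSSA reference variants and 8- to 13-residue peptides of TSSAII 24-62, probed with one serum pool per country.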

[2] = test system: pooled sera of chronic Chagas disease patients, Bolivia
Method: as §1

[3] = test system: pooled sera of chronic Chagas disease patients, Brazil
Method: as §1

[4] = test system: pooled sera of chronic Chagas disease patients, Colombia
Method: as §1

[5] = test system: pooled sera of chronic Chagas disease patients, Mexico
Method: as §1

[6] = test system: pooled sera of chronic Chagas disease patients, USA
Method: as §1

[7] = test system: pooled sera of uninfected people, Argentina
Method: as §1

[8] = test system: pooled sera of uninfected people, Bolivia
Method: as §1

[9] = test system: pooled sera of uninfected people, Colombia
Method: as §1

[10] = test system: pooled sera of uninfected people, Mexico
Method: as §1

[11] = test system: pooled sera of uninfected people, USA
Method: as §1

| Sequence | antibody binding signal [1] | antibody binding signal [2] | antibody binding signal [3] | antibody binding signal [4] | antibody binding signal [5] | antibody binding signal [6] | antibody binding signal [7] | antibody binding signal [8] | antibody binding signal [9] | antibody binding signal [10] | antibody binding signal [11] |
| --- | --- | --- | --- | --- | --- | --- | --- | --- | --- | --- | --- |
| PPSGTEKKAAAGEAP | 23700 | 11700 | 17700 | 811 | 1930 | 9460 | 997 | 429 | 250 | 169 | 232 |
| PSGTENKPATG | 48300 | 41800 | 46200 | 2610 | 4910 | 17500 | 2600 | 2740 | 879 | 726 | 998 |
| TPSPSGASSGEAEAS | 132 | 124 | 4180 | 89.2 | 408 | 139 | 249 | 141 | 77.2 | 92.4 | 275 |
| GSTSSTPPSGTEN | 44100 | 43200 | 29300 | 185 | 330 | 314 | 397 | 198 | 106 | 135 | 171 |
| NKPATGEAPSQP | 52100 | 51200 | 58200 | 389 | 272 | 43400 | 959 | 647 | 161 | 262 | 171 |
| TENKPATGEAPSQ | 47700 | 52300 | 50500 | 268 | 376 | 38600 | 852 | 413 | 152 | 233 | 194 |
| KPATGEAPSQPGA | 50300 | 41900 | 49400 | 183 | 335 | 43100 | 915 | 898 | 210 | 339 | 257 |
| NGGSTSSTPPSGTEN | 41200 | 42200 | 28000 | 217 | 253 | 274 | 483 | 194 | 149 | 142 | 157 |
| ATGEAPSQPGASS | 23200 | 45000 | 35800 | 1260 | 1260 | 11300 | 306 | 319 | 132 | 275 | 158 |
| PSGTENKP | 50900 | 37100 | 48300 | 1470 | 9360 | 13700 | 1780 | 959 | 711 | 430 | 853 |
| PSPSGASSGEAEASS | 124 | 123 | 2720 | 146 | 329 | 112 | 204 | 122 | 77.4 | 92.9 | 159 |
| ENKPATGEAPSQPGA | 45700 | 51300 | 48600 | 390 | 532 | 45700 | 1010 | 742 | 239 | 312 | 246 |
| STPPGTDKKTAAGGT | 4780 | 2530 | 2820 | 21000 | 8250 | 28700 | 204 | 103 | 199 | 1070 | 181 |
| KKTAAGEAPSPSGAS | 181 | 214 | 476 | 297 | 227 | 3540 | 253 | 157 | 365 | 71.4 | 205 |
| LSACTTANGGSTIST | 162 | 192 | 251 | 96.9 | 105 | 145 | 642 | 210 | 563 | 133 | 106 |
| GGSTSSTPPSGT | 304 | 274 | 696 | 247 | 273 | 296 | 196 | 193 | 104 | 163 | 137 |
| PATGEAPSQ | 41800 | 48700 | 44800 | 133 | 129 | 24700 | 723 | 132 | 91.8 | 101 | 96.7 |
| GASSGEAEASS | 92.2 | 108 | 701 | 146 | 151 | 77.9 | 137 | 159 | 89.8 | 92.2 | 71.7 |
| GEAPSPSGASSGEAE | 139 | 134 | 5370 | 105 | 1280 | 165 | 329 | 129 | 188 | 96.9 | 152 |
| SSTPPGTDKKTAAGG | 2670 | 1180 | 6900 | 13200 | 6470 | 22000 | 164 | 96.9 | 203 | 1050 | 403 |
| PSQPGASSGEAEASS | 195 | 116 | 8040 | 130 | 149 | 99.9 | 154 | 96.3 | 101 | 95.8 | 67.4 |
| TGEAPSQPGA | 7760 | 29800 | 20200 | 166 | 105 | 3220 | 163 | 139 | 203 | 253 | 162 |
| ANGGSTSST | 830 | 2580 | 761 | 1620 | 1860 | 2200 | 160 | 307 | 156 | 346 | 277 |
| GTENKPATGEAPS | 46800 | 49700 | 49700 | 1210 | 1780 | 41800 | 1020 | 1610 | 164 | 231 | 162 |
| ANGGSTSSTPPSGTE | 12900 | 1770 | 10300 | 1470 | 2630 | 1490 | 181 | 225 | 111 | 199 | 91.7 |

| Sequence | antibody binding signal [1] | antibody binding signal [2] | antibody binding signal [3] | antibody binding signal [4] | antibody binding signal [5] | antibody binding signal [6] | antibody binding signal [7] | antibody binding signal [8] | antibody binding signal [9] | antibody binding signal [10] | antibody binding signal [11] |
| --- | --- | --- | --- | --- | --- | --- | --- | --- | --- | --- | --- |
| PSGTENKPATGEA | 43300 | 41100 | 46600 | 1070 | 2960 | 24700 | 2150 | 1270 | 342 | 526 | 980 |
| TSSTPPGTDKKTAAG | 3120 | 511 | 7210 | 16900 | 6100 | 13400 | 242 | 132 | 214 | 1650 | 273 |
| TTANGGSTSSTPPGT | 178 | 217 | 649 | 155 | 176 | 147 | 177 | 174 | 310 | 173 | 97.7 |
| ATGEAPSQ | 19300 | 29700 | 16900 | 464 | 381 | 17700 | 187 | 189 | 94.9 | 86.7 | 74.1 |
| TSSTPPSGT | 364 | 253 | 398 | 228 | 238 | 236 | 120 | 114 | 86.9 | 171 | 77.2 |
| NKPATGEA | 36300 | 26600 | 29800 | 403 | 269 | 16300 | 129 | 561 | 124 | 441 | 345 |
| SGTENKPATGEA | 37200 | 30400 | 38400 | 227 | 575 | 22500 | 1310 | 1060 | 127 | 555 | 404 |
| TGEAPSQPGASSG | 16800 | 46200 | 22600 | 112 | 137 | 2640 | 165 | 117 | 101 | 172 | 94.9 |
| GSTSSTPPSGTE | 13200 | 749 | 11800 | 167 | 338 | 100 | 165 | 119 | 84.5 | 107 | 58.3 |
| SSTPPSGT | 285 | 179 | 407 | 118 | 198 | 126 | 96.3 | 110 | 103 | 148 | 133 |
| ENKPATGE | 33200 | 27400 | 34100 | 236 | 530 | 20000 | 352 | 940 | 87.8 | 123 | 132 |
| TPPSGTENKPA | 51700 | 45700 | 51900 | 323 | 9930 | 34600 | 7940 | 1520 | 748 | 463 | 950 |
| ENKPATGEAP | 46600 | 52200 | 50800 | 385 | 535 | 39700 | 961 | 635 | 179 | 257 | 265 |
| NKPATGEAPSQPGAS | 29400 | 48600 | 49300 | 464 | 234 | 37600 | 1140 | 1160 | 470 | 309 | 1250 |
| STISTPPSGTDKKTA | 20800 | 17200 | 39300 | 3670 | 27900 | 7110 | 458 | 128 | 221 | 1580 | 232 |
| GASSGEAE | 181 | 118 | 2900 | 169 | 129 | 83.4 | 158 | 138 | 221 | 138 | 99.3 |
| SACTTANGGSTSSTP | 539 | 236 | 730 | 473 | 262 | 312 | 216 | 228 | 239 | 175 | 131 |
| CTTANGGSTSSTPPS | 428 | 561 | 1550 | 221 | 268 | 286 | 250 | 275 | 667 | 203 | 144 |
| GSTISTPPSGTDKKT | 15600 | 3130 | 36200 | 2500 | 21700 | 8540 | 412 | 101 | 160 | 609 | 157 |
| GTDKKTAAGEAPSPS | 201 | 255 | 576 | 1300 | 484 | 7610 | 160 | 252 | 1070 | 149 | 104 |
| TACTTANGGSTSSTP | 482 | 213 | 845 | 395 | 212 | 268 | 175 | 159 | 227 | 190 | 140 |
| TPPGTDKKTAAGGTP | 8190 | 1180 | 3600 | 25200 | 6960 | 6980 | 191 | 111 | 184 | 1260 | 201 |
| PPSGTENK | 52400 | 25600 | 51700 | 576 | 9840 | 22600 | 2700 | 633 | 674 | 350 | 734 |
| STPPSGTENKPAT | 46000 | 48700 | 54300 | 2070 | 6710 | 46100 | 8660 | 1320 | 880 | 714 | 979 |
| SGTDKKTAAGEAPSP | 244 | 669 | 1590 | 2570 | 493 | 8690 | 196 | 174 | 1240 | 270 | 122 |
